Laboratory results from PubChem BioAssay (NCATS).
Values joined by “and” are separate entries in the source; they are usually repeats but may differ in a detail not shown here. Identical values can stand only once. Inconclusive results, whose numbers are uncertain, are shown with a selection of clear calls. For some of these results: A potency beside an inconclusive call is a rough fit, not a confirmed value. Active and inactive are the calls of the source. The call rests on the fitted dose curve; in most records, active means well fitted curve in the direction sought with a large enough effect; inconclusive means small, poorly fitted or top-dose-only effect, or another doubt; inactive means no such curve, though single readings can be large; an effect the other way counts as inactive or inconclusive.

Experiments:
[1] = Cell Proliferation Assay against the TMD8 Cell Line (Caspase readout at 8 hrs) (AID 651713); details: TMD8 lymphoma cells, caspase activation luminescence; caspase activation: at 46.1 µM (top of the series); further: potency means the concentration at half of the fitted maximal effect;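 on caspase activation: 0% = DMSO and 100% = 9.2 µM bortezomib caspase signal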
Outline: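 Apoptosis readout: caspase 3/7 luminescence (Caspase-Glo), 15 min RT. Cells: TMD8, 500/well, RPMI + 5% FBS, no phenol red. Exposure 8 h, 37C. % activity vs DMSO = 0, bortezomib 9.2 uM final = 100.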

[2] = Identifying Small Molecule Inhibitors of Pancreatic Cancer Stem Cells (A2780, Spheroid) (AID 1259357); details: Potency: A2780 spheroid viability; viability (percent of control): at 46.1 µM (top of the series); further: potency means the concentration at half of the fitted maximal effect;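 further: spheroids pre-formed over 14 days in stem cell medium on hydrogel; compound exposure lasted 48 h before the ATP luminescence read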;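 on viability (percent of control): 100% = DMSO treated cells and 0% = wells without cells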
Outline: (§1)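 Viability is scored by CellTiter-Glo luminescence 48 h after dosing, expressed as percent activity against vehicle and no-cell references. Spheroid formats rely on cells cultured 14 days in stem cell media beforehand.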

[3] = Identifying Small Molecule Inhibitors of Pancreatic Cancer Stem Cells (Panc1, Spheroid) (AID 1259359); details: Panc1 spheroid cancer stem cell viability; viability, % of control: at 46.1 µM (top of the series) unless noted;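 further: compound exposure lasted 48 h before reading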; further: potency means the concentration at half of the fitted maximal effect
Outline: (§2)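 Adherent (2D) versus sphere (3D) formats; spheres generated 14 d in SCM beforehand. Compound transferred by pin tool after 4 h, 48 h incubation, CellTiter-Glo endpoint.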

[4] = Identifying Small Molecule Inhibitors of Pancreatic Cancer Stem Cells (SN12C, Spheroid) (AID 1259360); details: Potency: SN12C spheroid viability; further: potency means the concentration at half of the fitted maximal effect;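 on viability (% of control): 100% = DMSO-treated cells and 0% = wells without cells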
Outline: as §1

[5] = Identifying Small Molecule Inhibitors of Pancreatic Cancer Stem Cells (A278, Adherent) (AID 1259361); further: nearly all actives have a fitted effect of over 35% in size
Outline: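 After a 4 h attachment period, compounds were pinned into wells and cultures held 48 h under standard incubator conditions. Viability was then measured as CellTiter-Glo luminescence following 10 min at room temperature.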

[6] = P-glycoprotein substrates identified in KB-8-5-11 adenocarcinoma cell line, qHTS therapeutic library screen (AID 1346987); further: potency means the concentration at half of the fitted maximal effect; nearly all actives have a fitted effect of over 65% in size
Outline: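 In this qHTS, P-gp-rich KB-8-5-11 cells received library compounds across a concentration range. Viability was quantified by luminescence after 72 h at 37 degree C.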

[7] = qHTS of pediatric cancer cell lines to identify multiple opportunities for drug repurposing: Primary screen for Rh30 cells (AID 1347107); further: potency means the concentration at half of the fitted maximal effect; nearly all actives have a fitted effect of over 75% in size
Outline: (§3)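 Cells (500-1,000/well) in growth media were settled 5 h at 37 degrees C, then given compounds for 48 h. Viability was read as CellTiter-Glo luminescence. Primary runs used MIPE at 11 points (0.78 nM-46 µM) and NPC at 8 points (0.59 nM-46 µM); follow-ups used 11 points.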

[8] = Quantitative High-Throughput drug screen in 47 multiple myeloma cell lines against the NCATS MIPE library collection: JIM1_ECACC cell viability assay (AID 1918964; further: potency means the concentration at half of the fitted maximal effect)
Outline: (§4)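 CellTiter-Glo luminescence (ATP) after 48 h compound exposure, 37C/5% CO2; 500 cells/well; MIPE 4.0 approved/investigational drugs pinned in; DMSO = 100%, media only = 0% viability.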

[9] = Quantitative High-Throughput drug screen in 47 multiple myeloma cell lines against the NCATS MIPE library collection: KMS21BM_JCRB cell viability assay (AID 1918974); details: ATP luminescence, 48 h; viability: at 45.8 µM (top of the series); further: potency means the concentration at half of the fitted maximal effect
Outline: as §4

[10] = Quantitative High-Throughput drug screen in 47 multiple myeloma cell lines against the NCATS MIPE library collection: MOLP8_DSMZ cell viability assay (AID 1918977); details: MOLP8 myeloma viability, CellTiter-Glo ATP luminescence, 48 h; viability (% of control): at 45.8 µM (top of the series); further: potency means the concentration at half of the fitted maximal effect; nearly all actives have a fitted effect of over 45% in size
Outline: (§5)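 Readout: median RLU from CellTiter-Glo after 5 min at room temperature. Preceding step was 48 h drug treatment of 500 cells/well at 37 °C, 5% CO2, with DMSO-only and media-only control wells.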

[11] = Quantitative High-Throughput drug screen in 47 multiple myeloma cell lines against the NCATS MIPE library collection: LP1_DSMZ cell viability assay (AID 1918982); further: potency means the concentration at half of the fitted maximal effect; nearly all actives have a fitted effect of over 35% in size
Outline: as §5

[12] = system: HEK293; assay: Cytotoxic Profiling of Annotated Libraries Using Quantitative High-Throughput Screening (AID 1296008); details: Five cell lines viability, CellTiter-Glo ATP luminescence, 48-72 h; max response: hits give low values; further: potency means the concentration at half of the fitted maximal effect; nearly all actives have a fitted effect of over 60% in size
Outline: (§6)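 Compounds were pin-transferred onto cells and incubated 48 or 72 hr at 37 degree Celsius, 95% humidity. CellTiter-Glo was added, plates sat 10 min at room temperature, then ATP-coupled luminescence was imaged as the viability read-out.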

[13] = Cell Proliferation Assay against the TMD8 Cell Line (Caspase readout at 16 hrs) (AID 651712); details: TMD8 lymphoma cells, caspase activation luminescence; caspase activation: at 46.1 µM (top of the series); further: potency means the concentration at half of the fitted maximal effect;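 on caspase activation: 0% = DMSO and 100% = 9.2 µM bortezomib caspase activation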
Outline: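 16 h, 37 °C, TMD8 (500 cells/well), RPMI/5% FBS no phenol red; Caspase-Glo 3/7, 15 min RT, luminescence; %act: DMSO 0, bortezomib 9.2 uM final 100.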

[14] = qHTS of pediatric cancer cell lines to identify multiple opportunities for drug repurposing: Primary screen for Rh18 cells (AID 1347102); further: potency means the concentration at half of the fitted maximal effect; nearly all actives have a fitted effect of over 65% in size
Outline: as §3

[15] = qHTS of pediatric cancer cell lines to identify multiple opportunities for drug repurposing: Primary screen for Rh41 cells (AID 1347108); further: potency means the concentration at half of the fitted maximal effect; nearly all actives have a fitted effect of over 70% in size
Outline: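 500-1,000 cells/well; 5 h pre-incubation 37 °C/5% CO2; compound pinned; 48 h; CellTiter-Glo, 15 min RT; luminescence. MIPE 11-pt from 0.78 nM, NPC 8-pt from 0.59 nM final. Bortezomib 2.3 µM final as positive control.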

[16] = Quantitative High-Throughput drug screen in 47 multiple myeloma cell lines against the NCATS MIPE library collection: KMS20_JCRB cell viability assay (AID 1918973); details: CellTiter-Glo ATP, 48 h; viability (% of DMSO): at 45.8 µM (top of the series); further: potency means the concentration at half of the fitted maximal effect; nearly all actives have a fitted effect of over 45% in size
Outline: as §4

[17] = Quantitative High-Throughput drug screen in 47 multiple myeloma cell lines against the NCATS MIPE library collection: L363_DSMZ cell viability assay (AID 1918984); details: L363 myeloma viability, CellTiter-Glo ATP luminescence, 48 h; viability (% of control): at 45.8 µM (top of the series); further: potency means the concentration at half of the fitted maximal effect; nearly all actives have a fitted effect of over 40% in size
Outline: as §5

[18] = system: CRL-7250; assay: Cytotoxic Profiling of Annotated Libraries Using Quantitative High-Throughput Screening (AID 1296008); details: Five cell lines viability, CellTiter-Glo ATP luminescence, 48-72 h; max response: hits give low values; further: potency means the concentration at half of the fitted maximal effect; nearly all actives have a fitted effect of over 60% in size
Outline: as §6

[19] = Identifying Small Molecule Inhibitors of Pancreatic Cancer Stem Cells (Panc1, Adherent) (AID 1259362); details: Potency: viability unless noted; viability, % of control: at 46.1 µM (top of the series) unless noted; further: potency means the concentration at half of the fitted maximal effect;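 on viability, % of control: compound exposure lasted 48 h before the viability read; plate controls were DMSO-treated cells for no effect and cell-free media wells for full effect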
Outline: as §2

[20] = qHTS of pediatric cancer cell lines to identify multiple opportunities for drug repurposing: Primary screen for BT-12 cells (AID 1347101); further: potency means the concentration at half of the fitted maximal effect; nearly all actives have a fitted effect of over 25% in size
Outline: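 Cells (500-1,000/well) rested 5 h, then received compounds for 48 h; metabolically active cells were measured by CellTiter-Glo luminescence. Final concentrations spanned up to 46 µM (MIPE, 11-point) or 0.59 nM-46 µM (NPC, 8-point) in primary screens, 11-point in follow-ups.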
Tags describe the fitted curve by direction and shape.

CNC(=O)c1cc(Oc2ccc(NC(=O)Nc3cc(C(C)(C)C)nn3-c3ccc4ncccc4c3)c(F)c2)ccn1
inconclusive: Potency [1] 26.4 µM [activator, single point] | viability (percent of control) [2] 10.3% | Potency [4] 26.4 µM [cytotoxic, single point] | IC50 (viability decrease) [5] 26.4 µM [cytotoxic, single point] | Potency [6] 23.1 µM [inhibitor, single point] | Potency [7] 18.7 µM [cytotoxic, partial curve] | Potency [12] 29.1 µM [inhibitor, single point]
active: Potency [3] 13.2 µM | Potency [8] 7.43 µM | Potency [9] 4.18 µM | Potency [10] 4.18 µM | Potency [11] 10.5 µM

COc1cc(=C2C=c3ccccc3=N2)[nH]c1=Cc1[nH]c(C)cc1C
inactive: Potency [1]
inconclusive: Potency [13] 20.9 µM [activator, single point] | Potency [4] 23.5 µM [cytotoxic, partial curve] | Potency [7] 10.5 µM [cytotoxic, partial curve] | Potency [8] 0.235 µM [cytotoxic, full curve, poor fit] | Potency [9] 18.7 µM [cytotoxic, partial curve, poor fit] | Potency [17] 20.9 µM [cytotoxic, partial curve]
active: Potency [2] 20.9 µM | Potency [3] 1.48 µM | IC50 (viability decrease) [5] 14.8 µM | Potency [6] 2.96 µM | Potency [14] 10.5 µM | Potency [15] 5.9 µM | Potency [16] 7.43 µM | Potency [11] 0.743 µM | Potency [18] 11.8 µM

Cn1cncc1[C@@](N)(c1ccc(Cl)cc1)c1ccc2c(c1)c(-c1cccc(Cl)c1)cc(=O)n2C
inconclusive: Potency [2] 18.7 µM [rising, partial curve, poor fit] | Potency [4] 26.4 µM [cytotoxic, single point] | Potency [11] 18.7 µM [cytotoxic, partial curve] | Potency [17] 3.72 µM [cytotoxic, partial curve] | Potency [18] 0.418 µM [inhibitor, full curve]
active: IC50 (viability decrease) [5] 23.5 µM | Potency [6] 3.72 µM | Potency [7] 14.8 µM | Potency [8] 0.935 µM | Potency [16] 11.8 µM | Potency [9] 16.6 µM | Potency [10] 7.43 µM | Potency [12] 0.148 µM

C[C@]12CCC(=O)C=C1CC[C@@H]1[C@@H]2[C@@H](O)C[C@@]2(C)[C@H]1CC[C@]2(O)C(=O)CO
inconclusive: viability, % of control [3] 78.6% | IC50 (viability decrease) [5] 16.6 µM [cytotoxic, partial curve, poor fit]
inactive: Potency [13] | Potency [1] | Potency [2] | Potency [4] | Potency [19]

Cc1c(CN2CCN(C(=O)C(C)C)CC2)sc2c(N3CCOCC3)nc(-c3cnc(N)nc3)nc12
active: Potency [6] 0.0833 µM | Potency [14] 0.264 µM | Potency [7] 1.87 µM | Potency [15] 0.235 µM | Potency [9] 0.526 µM | Potency [17] 0.0209 µM
inconclusive: Potency [13] 0.0935 µM [activator, full curve, poor fit] | Potency [1] 7.43 µM [activator, partial curve, poor fit] | Potency [2] 0.418 µM [cytotoxic, full curve] | IC50 (viability decrease) [5] 0.118 µM [cytotoxic, full curve] | Potency [11] 0.0132 µM [cytotoxic, full curve]

Cc1cc(Nc2cc(N3CCN(C)CC3)nc(Sc3ccc(NC(=O)C4CC4)cc3)n2)n[nH]1
inconclusive: Potency [13] 18.7 µM [activator, partial curve] | Potency [2] 1.32 µM [rising, partial curve, poor fit] | Potency [3] 0.0332 µM [cytotoxic, full curve, poor fit] | IC50 (viability decrease) [5] 20.9 µM [cytotoxic, partial curve] | Potency [19] 20.9 µM [cytotoxic, partial curve, poor fit] | Potency [6] 8.33 µM [inhibitor, full curve, poor fit] and 5.17 µM [inhibitor, full curve] | Potency [9] 29.6 µM [rising, partial curve, poor fit] | Potency [11] 11.8 µM [cytotoxic, partial curve] | Potency [17] 9.35 µM [cytotoxic, single point] | Potency [18] 37.2 µM [inhibitor, single point] and 29.1 µM [inhibitor, single point]
inactive: Potency [4]
active: Potency [20] 21.7 µM | Potency [14] 16.6 µM | Potency [7] 18.7 µM | Potency [8] 6.62 µM | Potency [16] 4.69 µM | Potency [12] 7.43 µM and 7.31 µM
